The source of these data is US11365205B2 (Aurigene Discovery Technologies Limited, priority 2018, dated 2022).

In one assay the target is PRMT5/MEP50 Complex (Homo sapiens (Human), UniProt O14744). Put plainly: PRMT5 inhibition based on TR-FRET assay. The format is biochemical. The note with it: 32 nM PRMT5:MEP50, 50 nM Histone-H4 peptide, 1 μM SAM. A digest of the protocol:
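32 nM PRMT5 pre-incubated 30 min at RT with compound in BICINE buffer pH 7.6, then reacted 90 min with 50 nM biotinylated H4 peptide (1-16) and 1 μM SAM. Mono-methyl H4R3 detected by TR-FRET (Eu antibody/streptavidin-APC, 665/615 nm ratio). IC50 fitted from percent inhibition over 1:3 dilution series.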
On the technique in general: In TR-FRET formats the signal depends on donor and acceptor labels being close together.

In a further assay the test system is Z138 cells. Put plainly: Z138 cell proliferation assay (XTT). The format is cell-based. The note with it: Homo sapiens, Z-138, 168 h, 7 days, XTT readout. On the procedure: Z138 Cell Proliferation Assay:
Z138 cells were seeded in a 96-well round-bottom plate and treated with varying concentration of compound. The final DMSO concentration was maintained at 0.05%. The selected compounds of present invention were screened in a 9-point dose response format starting with 10 μM and ⅓^rd serial dilution. On the 4th day, cells were spun down and media was replaced while maintaining the initial compound concentration in each well. At the end of the 7th day, cells were spun down and media was aspirated. 50 μL of XTT containing media was added to the wells. The plates were read using the M3 spectrophotometer at 465 nm. GI50 values were calculated by fitting the dose response data to sigmoidal curve fitting equation using GraphPad Prism software V7. […]

A value given as a limit tells only on which side of the number the result lay.

UniProt O14744, sequence (O14744 whole entry): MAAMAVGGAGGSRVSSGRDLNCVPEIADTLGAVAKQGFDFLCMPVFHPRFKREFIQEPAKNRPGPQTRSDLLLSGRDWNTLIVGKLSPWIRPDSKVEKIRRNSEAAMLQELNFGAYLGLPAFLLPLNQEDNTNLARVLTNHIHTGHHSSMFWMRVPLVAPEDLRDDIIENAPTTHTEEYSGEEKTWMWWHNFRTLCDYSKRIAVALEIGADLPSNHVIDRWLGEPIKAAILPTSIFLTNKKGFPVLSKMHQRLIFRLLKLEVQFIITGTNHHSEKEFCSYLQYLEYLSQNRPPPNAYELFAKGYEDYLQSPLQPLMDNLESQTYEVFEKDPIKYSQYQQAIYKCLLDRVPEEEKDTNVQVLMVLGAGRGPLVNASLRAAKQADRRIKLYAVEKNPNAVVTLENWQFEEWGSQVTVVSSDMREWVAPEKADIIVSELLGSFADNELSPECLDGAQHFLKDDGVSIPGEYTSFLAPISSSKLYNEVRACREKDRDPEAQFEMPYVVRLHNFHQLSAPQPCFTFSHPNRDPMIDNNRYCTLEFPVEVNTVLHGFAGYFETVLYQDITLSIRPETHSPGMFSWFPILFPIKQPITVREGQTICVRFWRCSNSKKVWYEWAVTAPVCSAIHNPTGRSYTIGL
UniProt O14744, sequence (Q9BQA1 whole entry partner): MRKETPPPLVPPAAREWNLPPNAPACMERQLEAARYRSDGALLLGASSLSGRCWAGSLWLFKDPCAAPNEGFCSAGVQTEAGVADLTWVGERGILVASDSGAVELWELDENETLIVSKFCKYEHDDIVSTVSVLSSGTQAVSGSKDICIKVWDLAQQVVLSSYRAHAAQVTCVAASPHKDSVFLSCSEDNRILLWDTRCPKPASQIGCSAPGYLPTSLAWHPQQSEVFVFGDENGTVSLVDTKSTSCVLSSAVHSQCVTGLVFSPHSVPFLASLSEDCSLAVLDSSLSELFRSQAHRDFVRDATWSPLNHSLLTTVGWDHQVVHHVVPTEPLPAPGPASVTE

`Cc1ccc(CN2CC3(CC3)N(CC(O)CN3CCc4ccccc4C3)C2=O)cn1` (stereo not drawn) [Example 6, 4-(3-(3,4-dihydroisoquinolin-2(1H)-yl)-2-hydroxypropyl)-6-((6-methylpyridin-3-yl)methyl)-4,6-diazaspiro[2.4]heptan-5-one] displayed an IC50 against PRMT5/MEP50 Complex of 120 nM. The same compound displayed a concentration for 50% growth inhibition (GI50) in the assay on Z138 cells of less than 500 nM.

`Cc1ccc(CN2C(=O)N(CC(O)CN3CCc4ccccc4C3)CC2(C)C)cc1` (stereo not drawn) [Example 10, 1-(3-(3,4-dihydroisoquinolin-2(1H)-yl)-2-hydroxypropyl)-4,4-dimethyl-3-(4-methylbenzyl)imidazolidin-2-one] had a 50% inhibitory concentration (IC50) on PRMT5/MEP50 Complex of 230 nM. Also, the GI50 in the assay with Z138 cells was less than 500 nM.

`CC1(C)CN(Cc2ccc(C#N)nc2)C(=O)N1CC(O)CN1CCc2ccccc2C1` (stereo not drawn) [Example 12, 5-((3-(3-(3,4-dihydroisoquinolin-2(1H)-yl)-2-hydroxypropyl)-4,4-dimethyl-2-oxoimidazolidin-1-yl)methyl)picolinonitrile]: inhibition against PRMT5/MEP50 Complex was half-maximal at 240 nM (IC50). Besides, the GI50 in the assay with Z138 cells is less than 500 nM.

In the case of `Cc1ccccc1CN1CCN(CC(O)CN2CCc3ccccc3C2)C1=O` (stereo not drawn) [Example 16, 1-(3-(3,4-Dihydroisoquinolin-2(1H)-yl)-2-hydroxypropyl)-3-(2-methylbenzyl)imidazolidin-2-one], the IC50 against PRMT5/MEP50 Complex is 250 nM. The compound further displayed a 50% growth inhibitory concentration (GI50) in the assay on Z138 cells of more than 1000 nM.

Take `N#Cc1ccc(CN2CCN(CC(O)CN3CCc4ccccc4C3)C2=O)cc1` (stereo not drawn) [Example 18, 4-((3-(3-(3,4-dihydroisoquinolin-2(1H)-yl)-2-hydroxypropyl)-2-oxoimidazolidin-1-yl)methyl)benzonitrile]: at PRMT5/MEP50 Complex, the half-inhibitory concentration (IC50) stood at 70 nM. The same compound came in with a GI50 with Z138 cells of less than 500 nM.

With `Cc1ccc(CN2CCN(CC(O)CN3CCc4ccccc4C3)C2=O)cn1` (stereo not drawn) [Example 19, 1-(3-(3,4-dihydroisoquinolin-2(1H)-yl)-2-hydroxypropyl)-3-((6-methylpyridin-3-yl)methyl)imidazolidin-2-one], the 50% inhibitory concentration (IC50) against PRMT5/MEP50 Complex was determined as 310 nM. Besides, in the assay with Z138 cells, the concentration for 50% growth inhibition (GI50) was more than 1000 nM.

`N#Cc1ccc(CN2CCN(CC(O)CN3CCc4ccccc4C3)C2=O)cn1` (stereo not drawn) [Example 21, 5-((3-(3-(3,4-dihydroisoquinolin-2(1H)-yl)-2-hydroxypropyl)-2-oxoimidazolidin-1-yl)methyl)picolinonitrile] registered an IC50 against PRMT5/MEP50 Complex of 250 nM. For the same compound, the GI50 in the assay on Z138 cells was more than 1000 nM.

With `Cc1cccc(CN2CCN(CC(O)CN3CCc4ccccc4C3)C2=O)n1` (stereo not drawn) [Example 22, 1-(3-(3,4-dihydroisoquinolin-2(1H)-yl)-2-hydroxypropyl)-3-((6-methylpyridin-2-yl)methyl)imidazolidin-2-one], it took 390 nM to reach half-maximal inhibition at PRMT5/MEP50 Complex (IC50). In addition, in the assay with Z138 cells, the 50% growth inhibitory concentration (GI50) was more than 1000 nM.

With `CC1(C)C(=O)N(Cc2ccc(C#N)cc2)C(=O)N1CC(O)CN1CCc2ccccc2C1` (stereo not drawn) [Example 24, 4-((3-(3-(3,4-dihydroisoquinolin-2(1H)-yl)-2-hydroxypropyl)-4,4-dimethyl-2,5-dioxoimidazolidin-1-yl)methyl)benzonitrile], half-maximal inhibition on PRMT5/MEP50 Complex (IC50) was put at 330 nM. In the assay on Z138 cells, this compound showed a 50% growth inhibitory concentration (GI50) of less than 500 nM.

On PRMT5/MEP50 Complex, `C=C(C)c1ccc(CN2CCN(CC(O)CN3CCc4ccccc4C3)C2=O)cn1` (stereo not drawn) [Example 26] gave an IC50 of 100 nM. Besides, the concentration for 50% growth inhibition (GI50) in the assay with Z138 cells was 510 to 1000 nM.

Compound `CC(C)c1ccc(CN2CCN(CC(O)CN3CCc4ccccc4C3)C2=O)cn1` (stereo not drawn) [Example 28] gave a concentration for half-maximal inhibition (IC50) at PRMT5/MEP50 Complex of 130 nM. In the assay with Z138 cells, this compound yielded a GI50 of less than 500 nM.

On PRMT5/MEP50 Complex, `CC(=O)c1ccc(CN2CCN(CC(O)CN3CCc4ccccc4C3)C2=O)cn1` (stereo not drawn) [Example 32, 1-((6-Acetylpyridin-3-yl)methyl)-3-(3-(3,4-dihydroisoquinolin-2(1H)-yl)-2-hydroxypropyl)imidazolidin-2-one] showed an IC50 of 2100 nM. In the assay on Z138 cells, this compound came in with a concentration for 50% growth inhibition (GI50) of 510 to 1000 nM.

On to `N#Cc1ccc(N2CCN(CC(O)CN3CCc4ccccc4C3)C2=O)cc1` (stereo not drawn) [Example 33, 4-(3-(3-(3,4-dihydroisoquinolin-2(1H)-yl)-2-hydroxypropyl)-2-oxoimidazolidin-1-yl)benzonitrile], for which half-maximal inhibition on PRMT5/MEP50 Complex (IC50) was put at 210 nM. The 50% growth inhibitory concentration (GI50) in the assay with Z138 cells was more than 1000 nM.

The compound `N#Cc1ccc(CN2CCN(CC(O)CN3CCc4ccccc4C3)C2=O)nc1` (stereo not drawn) [Example 35, 6-((3-(3-(3,4-Dihydroisoquinolin-2(1H)-yl)-2-hydroxypropyl)-2-oxoimidazolidin-1-yl)methyl)nicotinonitrile] registered an IC50 against PRMT5/MEP50 Complex of 90 nM. In addition, the 50% growth inhibitory concentration (GI50) in the assay with Z138 cells is less than 500 nM.

`N#Cc1cccc(CN2CCN(CC(O)CN3CCc4ccccc4C3)C2=O)n1` (stereo not drawn) [Example 36, 6-((3-(3-(3,4-Dihydroisoquinolin-2(1H)-yl)-2-hydroxypropyl)-2-oxoimidazolidin-1-yl)methyl)picolinonitrile] showed an IC50 at PRMT5/MEP50 Complex of 590 nM. For the same compound, the GI50 in the assay with Z138 cells is more than 1000 nM.

With `Cc1cc(CN2CCN(CC(O)CN3CCc4ccccc4C3)C2=O)ccc1C#N` (stereo not drawn) [Example 37], on PRMT5/MEP50 Complex, 80 nM corresponded to half-maximal inhibition (IC50). This compound also yielded a GI50 in the assay with Z138 cells of less than 500 nM.

Take `CC1(C)CN(Cc2ccc(C#N)cn2)C(=O)N1CC(O)CN1CCc2ccccc2C1` (stereo not drawn) [Example 38, 6-((3-(3-(3,4-Dihydroisoquinolin-2(1H)-yl)-2-hydroxypropyl)-4,4-dimethyl-2-oxoimidazolidin-1-yl)methyl)nicotinonitrile]: the half-maximal inhibitory concentration (IC50) at PRMT5/MEP50 Complex amounted to 160 nM. Moreover, the concentration for 50% growth inhibition (GI50) in the assay with Z138 cells was less than 500 nM.

`N#Cc1ccc(CN2CCN(CC(O)CN3CCc4ccccc4C3)C2=O)cc1F` (stereo not drawn) [Example 39, 4-((3-(3-(3,4-Dihydroisoquinolin-2(1H)-yl)-2-hydroxypropyl)-2-oxo-imidazolidin-1-yl)methyl)-2-fluorobenzonitrile] had a concentration for half-maximal inhibition (IC50) against PRMT5/MEP50 Complex of 220 nM. The compound also returned a concentration for 50% growth inhibition (GI50) in the assay on Z138 cells of 510 to 1000 nM.

Broadly, the IC50 is the concentration at which inhibition is half-maximal. By GI50 is commonly meant the concentration giving 50% growth inhibition. A low value points to greater sensitivity of the cells.
